Results are given in words; binding and its absence hold for the method and conditions named. Some results given as binding are weak or reduced against the parent protein; the word gives no strength.
Biological target: T1, endogenous IRF3 of RAW264.7 cells (mouse (endogenous in RAW264.7)), P70671
T1 chain: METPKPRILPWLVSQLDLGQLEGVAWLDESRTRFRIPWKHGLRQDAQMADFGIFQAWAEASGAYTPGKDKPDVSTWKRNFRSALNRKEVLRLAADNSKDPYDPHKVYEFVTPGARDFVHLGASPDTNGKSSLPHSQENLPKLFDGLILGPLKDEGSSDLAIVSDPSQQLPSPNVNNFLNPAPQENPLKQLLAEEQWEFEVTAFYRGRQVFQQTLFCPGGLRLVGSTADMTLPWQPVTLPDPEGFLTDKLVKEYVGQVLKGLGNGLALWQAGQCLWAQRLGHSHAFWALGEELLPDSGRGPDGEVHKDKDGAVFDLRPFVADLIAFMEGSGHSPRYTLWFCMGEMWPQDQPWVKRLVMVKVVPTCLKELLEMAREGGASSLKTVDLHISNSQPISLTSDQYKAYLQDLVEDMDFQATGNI
Assay: native gel or EMSA
Settings: remark: other sources report otherwise

B1: endogenous IRF3 of RAW264.7 cells, P70671 1-419 (protein)
chain: T1 chain
binding: binds

— paper PMC7733952
